Source: the RNAGym collection of RNA variant scans (doi:10.1073/pnas.2313332121)
Variants at the background level are over-represented here.

B1: TPR 5TU (parent)
chain: GGAUCUUCUCGAUCUAACAAAAAAGACAAAUCUGCCACAAAGCUUGAGAGCAUCUUCGGAUGCAGAGGCGGCAGCCUUCGGUGGCGCGAUAGCGCCAACGUUCUCAACUAUGACACGCAAAACGCGUGCUCCGUUGAAUGGAGUUUAUCAUG

Variants of: B1
Assay: polymerase ribozyme fitness, log enrichment relative to wild type (log ratio); higher = more active; in vitro selection for triplet polymerase activity
Procedure, shortened: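 Mutant libraries of each subunit of a heterodimeric triplet polymerase ribozyme were built by PCR and transcribed. Each library went through one round of in vitro selection in triplicate: annealing with biotinylated primer, partner subunit and triplets, frozen incubation at −7 °C, gel excision of extended constructs, streptavidin-bead capture and RT-PCR. Input and output libraries were Illumina-sequenced; only genotypes with ≥10 input reads and ≥1 read per output were kept. Fitness is log2(genotype enrichment/wild-type enrichment), using inverse-variance-weighted replicate averages.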

Variant | polymerase ribozyme fitness (log ratio)
GGAUCUUCUCGAUCUAACAAAAAAGACAAAUCUGCCACAAAGCUUGAGAGCAUCUUCGGAUGCAGAGGCGGCAGCCUUCGGUGGGGCGAAAGCGCCAACGUUCUCAACUAUGAAACGCAAAACGCGUGCUCCGUUGAAUGGAGUUUAUCAUG [C85G U90A C114A] | ≤ -4.2
GGAUCUUCUCGAUCUAACAAAAAAGACAAAUCUGCCACAAAGCUUGAGAGCAUCUUCGGAUGCAGAGGCGGCAGCCUUCGGUGGGGCGAUAGCGCCAACGUUCUCAACUAUGACACUCAAAACGCGUGCUCCUUUGAAUGGAGUUUAACAUG [C85G G117U G133U U148A] | ≤ -4.2
GGAUCUUCUCGAUCUAACAAAAAAGACAAAUCUGCCACAAAGCUUGAGAGCAUCUUCGGAUGCAGAGGCGGCAGCCUUCGGUGGUGCGAUUGCGGCAACGUUCUCAACUAUGACACGCAAAACGCGUGCUCCGUUGAAUUGAGUUUAUCAUG [C85U A91U C95G G140U] | ≤ -4.2
GGAUCUUCUCGAUCUAACAAAAAAGACAAAUCUGCCACAAAGCUUGAGAGCAUCUUCGGAUGCAGAGGCGGCAGCCUUCGGUGGUUCGAUAGUGCCAACGUUCUCAACUAUGACACGCAAAACGCGUGCACCGUUGAUUGGAGUUUAUCAUG [C85U G86U C93U U130A A138U] | ≤ -4.2
GGAUCUUCUCGAUCUAACAAAAAAGACAAAUCUGCCACAAAGCUUGAGAGCAUCUUCGGAUGCAGAGGCGGCAGCCUUCGGUGGGGCGAUAGCGCCAACGUUCUCAACUAUGACACGCAAAACGCGUGCUCCGUUGAACGGAAUUUAUCAUG [C85G U139C G143A] | ≤ -4.2
GGAUCUUCUCGAUCUAACAAAAAAGACAAAUCUGCCACAAAGCUUGAGAGCAUCUUCGGAUGCAGAGGCGGCAGCCUUCGGUGGGGCGAUAGCGCCAACGUUCUCAACUAUGACACGCAAAACGCGUCCUCCGUUGAAUGGAGUUCAUCAUG [C85G G128C U146C] | ≤ -4.2
GGAUCUUCUCGAUCUAACAAAAAAGACAAAUCUGCCACAAAGCUUGAGAGCAUCUUCGGAUGCAGAGGCGGCAGCCUUCGGUGGGGCGAUAGCGCCAACGUUCUCAACUAUGACACGCAAAACGCGUGCUCCGUCGACUGGAGUUUAUCAUG [C85G U135C A138C] | ≤ -4.2
GGAUCUUCUCGAUCUAACAAAAAAGACAAAUCUGCCACAAAGCUUGAGAGCAUCUUCGGAUGCAGAGGCGGCAGCCUUCGGUGGUGCGAUAGUGCCAACGUUCUCAGCUAUGACACACAAAACGCGUGCUCCGUUGAAUUGAGUUUAUCAUG [C85U C93U A107G G117A G140U] | ≤ -4.2
GGAUCUUCUCGAUCUAACAAAAAAGACAAAUCUGCCACAAAGCUUGAGAGCAUCUUCGGAUGCAGAGGCGGCAGCCUUCGGUGGUGCGAUAGCGCCAACGUUCUCAACUAUGACUCGCAAAACGCGUGCUCCGUUGAAUAGAGUUUAUCAUG [C85U A115U G140A] | -3.77
GGAUCUUCUCGAUCUAACAAAAAAGACAAAUCUGCCACAAAGCUUGAGAGCAUCUUCGGAUGCAGAGGCGGCAGCCUUCGGUGGUGCGAUAGCGCUAACGUUCUCAACUAUGACACGCAAAACGCGUGCUCCGUUGAAUGGAGUUUAUCAUG [C85U C96U] | -0.746
GGAUCUUCUCGAUCUAACAAAAAAGACAAAUCUGCCACAAAGCUUGAGAGCAUCUUCGGAUGCAGAGGCGGCAGCCUUCGGUGGGGCGAUAGCGCCAACGUUCUCAACUAUGACACGCAAAACGCGUGCUCCGUUGAAUGGACUUUACCAUG [C85G G143C U148C] | ≤ -4.2
GGAUCUUCUCGAUCUAACAAAAAAGACAAAUCUGCCACAAAGCUUGAGAGCAUCUUCGGAUGCAGAGGCGGCAGCCUUCGGUGGUCCAAGAGCGCCAACGUUCUCAACUAUGACACGCAAUACGCGUACUCCGUUGAAUGGAGUUUAUCAUG [C85U G86C G88A U90G A121U G128A] | ≤ -4.2
GGAUCUUCUCGAUCUAACAAAAAAGACAAAUCUGCCACAAAGCUUGAGAGCAUCUUCGGAUGCAGAGGCGGCAGCCUUCGGUGGUGCGAUAGCGCCAGCGUUCUCAACUAUGACACGCAAAACGCGUGCUCCGUUGAAUGGAGUUUAUCAUG [C85U A98G] | -0.688
GGAUCUUCUCGAUCUAACAAAAAAGACAAAUCUGCCACAAAGCUUGAGAGCAUCUUCGGAUGCAGAGGCGGCAGCCUUCGGUGGGGCGAUAGCGCCAACGUUCUCAACUAUGACACGCAAAACGCGUGCUCCCUUGAAAGGAGUUUAUCAUG [C85G G133C U139A] | ≤ -4.2
GGAUCUUCUCGAUCUAACAAAAAAGACAAAUCUGCCACAAAGCUUGAGAGCAUCUUCGGAUGCAGAGGCGGCAGCCUUCGGUGGUGCCAUAGCGCCAACGUUCUCAACUAUGACAGGCAAAACGCGUGCUCCGUUGAAUGGAGUUUAUCAUG [C85U G88C C116G] | ≤ -4.2
GGAUCUUCUCGAUCUAACAAAAAAGACAAAUCUGCCACAAAGCUUGAGAGCAUCUUCGGAUGCAGAGGCGGCAGCCUUCGGUGGUGCGAUAGCGCCAACGUUCUCAACUAUGACACGGAAAACGCGUGCUCCGUUGAAUCGAGUUUAUCAUG [C85U C118G G140C] | ≤ -4.2
GGAUCUUCUCGAUCUAACAAAAAAGACAAAUCUGCCACAAAGCUUGAGAGCAUCUUCGGAUGCAGAGGCGGCAGCCUUCGGUGGGGCGAUAGCGCCAACGUGCUCAACGAUAACACGCAAAACGCGUGCUCCGUUGAAUGGAGUUUAUCAUG [C85G U102G U109G G112A] | ≤ -4.2
GGAUCUUCUCGAUCUAACAAAAAAGACAAAUCUGCCACAAAGCUUGAGAGCAUCUUCGGAUGCAGAGGCGGCAGCCUUCGGUGGUCCGAUAGCGACAACGUUCUCAACUAUGACACGCAAAACGCGUGCUCCGUUGAAUGGAGACUAUCAUG [C85U G86C C95A U144A U145C] | ≤ -4.2
GGAUCUUCUCGAUCUAACAAAAAAGACAAAUCUGCCACAAAGCUUGAGAGCAUCUUCGGAUGCAGAGGCGGCAGCCUUCGGUGGUGCGAUAGCGCCAACGUUCUCAACUAUGACACGCAAAACGCGUGCUCCGUUGAAUGGAGUUUAUCAUG [C85U] | -0.513

Variant | polymerase ribozyme fitness (log ratio)
GGAUCUUCUCGAUCUAACAAAAAAGACAAAUCUGCCACAAAGCUUGAGAGCAUCUUCGGAUGCAGAGGCGGCAGCCUUCGGUGGUGCGAUAGCGCCAACGUUCUCAACUAUGACACGCAACACGCGUGCUCCGUUGAAUGGAGUUUAUCAUG [C85U A121C] | -0.139
GGAUCUUCUCGAUCUAACAAAAAAGACAAAUCUGCCACAAAGCUUGAGAGCAUCUUCGGAUGCAGAGGCGGCAGCCUUCGGUGGUGCGAUAGCGCCAAGGUUCUCAACUAUGACACGCAAAACGCGUGCUCCGUUUAAUGGAGUUUAUCAUG [C85U C99G G136U] | -2.88
GGAUCUUCUCGAUCUAACAAAAAAGACAAAUCUGCCACAAAGCUUGAGAGCAUCUUCGGAUGCAGAGGCGGCAGCCUUCGGUGGUGCGUUAGCGCCAACGUUCUCAACUAUGACACGCCAAACGCGUGCUCCGUUGAAUGGAGUUUAUCAUG [C85U A89U A119C] | -0.895
GGAUCUUCUCGAUCUAACAAAAAAGACAAAUCUGCCACAAAGCUUGAGAGCAUCUUCGGAUGCAGAGGCGGCAGCCUUCGGUGGGGCGAUAGCGCCAACGUUCUCAACUAUGACACGCAAAACGUGUGCUCCGUUGAAUGGAGUUUAUCAUG [C85G C125U] | -3.35
GGAUCUUCUCGAUCUAACAAAAAAGACAAAUCUGCCACAAAGCUUGAGAGCAUCUUCGGAUGCAGAGGCGGCAGCCUUCGGUGGGACGAUAGCGCCAACGUUCUCAACUAUGACACGCAAAACGCGUGCUCCGUUGAAUGGAGUUUAUCAUG [C85G G86A] | -3.83
GGAUCUUCUCGAUCUAACAAAAAAGACAAAUCUGCCACAAAGCUUGAGAGCAUCUUCGGAUGCAGAGGCGGCAGCCUUCGGUGGGGCGACAGCGCCAACGUUCUCAACUUUGACACGCAAAACGCGUGCUCCGUUGAAUGGAGUUUAUCAUG [C85G U90C A110U] | ≤ -4.2
GGAUCUUCUCGAUCUAACAAAAAAGACAAAUCUGCCACAAAGCUUGAGAGCAUCUUCGGAUGCAGAGGCGGCAGCCUUCGGUGGUGCGAUAGCGCCAACGUUCUCAACUAUGACAAGCAAAGCGCGUGCUCCGUUGAAUGGAUUUUAUCAUG [C85U C116A A122G G143U] | ≤ -4.2
GGAUCUUCUCGAUCUAACAAAAAAGACAAAUCUGCCACAAAGCUUGAGAGCAUCUUCGGAUGCAGAGGCGGCAGCCUUCGGUGGGGCGAUAGCGCCAACGUGCUCAACUAUGACACGCAAAACGCGUGUUCCGUUGAAUGGAGUUUAUCCUG [C85G U102G C129U A150C] | ≤ -4.2
GGAUCUUCUCGAUCUAACAAAAAAGACAAAUCUGCCACAAAGCUUGAGAGCAUCUUCGGAUGCAGAGGCGGCAGCCUUCGGUGGUGUGAUAGCGCCAACGUUCUCAACUAUGACACGCAAAACGCGUGCUCCGUUGAAUGGAGUUUAUCAUG [C85U C87U] | 0.308
GGAUCUUCUCGAUCUAACAAAAAAGACAAAUCUGCCACAAAGCUUGAGAGCAUCUUCGGAUGCAGAGGCGGCAGCCUUCGGUGGUGCGAUAGCGCCAUCGUUCUCAACUAUGACACACAAAACGCGUGCUCCGUUGAAUGGAGUUUAUCAUG [C85U A98U G117A] | -0.373
GGAUCUUCUCGAUCUAACAAAAAAGACAAAUCUGCCACAAAGCUUGAGAGCAUCUUCGGAUGCAGAGGCGGCAGCCUUCGGUGGUCCGUUAGCGCCAAAGUUCUCAAUUAUGACACGCAAAACGCGUGCUCCGUUGAAUGGAGUUUAUCAUG [C85U G86C A89U C99A C108U] | ≤ -4.2
GGAUCUUCUCGAUCUAACAAAAAAGACAAAUCUGCCACAAAGCUUGAGAGCAUCUUCGGAUGCAGAGGCGGCAGCCUUCGGUGGGGCGAUAGCGCCAACGUUCUCAACUAUGACACGCAAAACGCGUGCUCCGUUGAAUGGAGAUUAUCUUG [C85G U144A A150U] | -3.7
GGAUCUUCUCGAUCUAACAAAAAAGACAAAUCUGCCACAAAGCUUGAGAGCAUCUUCGGAUGCAGAGGCGGCAGCCUUCGGUGGUGCGAUAGCGUCAACGUUCUCAACUAUGACACGCAAAACGCGUGCUCCAUUGAAUGGAGUUUAUCAUG [C85U C95U G133A] | -4
GGAUCUUCUCGAUCUAACAAAAAAGACAAAUCUGCCACAAAGCUUGAGAGCAUCUUCGGAUGCAGAGGCGGCAGCCUUCGGUGGUGCGAUAGCGCCAACGUUCUCAUCUAUGACACGCAAAACGCGUGCUCCGUUGAAUGGAGUAUAUCUUG [C85U A107U U145A A150U] | ≤ -4.2
GGAUCUUCUCGAUCUAACAAAAAAGACAAAUCUGCCACAAAGCUUGAGAGCAUCUUCGGAUGCAGAGGCGGCAGCCUUCGGUGGUGCGAUAGCGCCAACGUUCUCAACUAUGACACGCAAACCGCGUGCUCCAUUGAAUCGAGUUUAUCAUG [C85U A122C G133A G140C] | ≤ -4.2
GGAUCUUCUCGAUCUAACAAAAAAGACAAAUCUGCCACAAAGCUUGAGAGCAUCUUCGGAUGCAGAGGCGGCAGCCUUCGGUGGUUCGAUAGCGCCAACGUUCUCAACUAUGACACGCAAAACGCGUGCUCCGUGGAAUGGAGUUUAUCAUG [C85U G86U U135G] | ≤ -4.2
GGAUCUUCUCGAUCUAACAAAAAAGACAAAUCUGCCACAAAGCUUGAGAGCAUCUUCGGAUGCAGAGGCGGCAGCCUUCGGUGGGGCGAUAGCGCCAACGUUCUCAACUAUGACACGCAAAACGCGUGCUUCGUUGAUUGGAGUUUAACAUG [C85G C131U A138U U148A] | ≤ -4.2
GGAUCUUCUCGAUCUAACAAAAAAGACAAAUCUGCCACAAAGCUUGAGAGCAUCUUCGGAUGCAGAGGCGGCAGCCUUCGGUGGGGCGAUAGCGCCAACGUUCUCAACUAUGACACCCAAAACGCGUGCUCCGUUAAAUGGAGUUUAUGAUG [C85G G117C G136A C149G] | ≤ -4.2
GGAUCUUCUCGAUCUAACAAAAAAGACAAAUCUGCCACAAAGCUUGAGAGCAUCUUCGGAUGCAGAGGCGGCAGCCUUCGGUGGGGCGAUAGCGCCAACGUUCUCAACUAUGACACGAAAAACGCGUGCUCCGUUGAAUGGAGUUCAUCAUG [C85G C118A U146C] | -2.72
